Measured values taken from the supplement of paper PMC12217912.
Some of the results follow. The full chains were built here from the parent and the listed change. Inactive controls read about 0.05.

B1: TEV protease; numbered along this chain (parent)
chain: MGESLFKGPRDYNPISSSICHLTNESDGHTTSLYGIGFGPFIITNKHLFRRNNGTLVVQSLHGVFKVKDTTTLQQHLVDGRDMIIIRMPKDFPPFPQKLKFREPQREERICLVTTNFQTKSMSSMVSDTSCTFPSGDGIFWKHWIQTKDGQCGSPLVSTRDGFIVGIHSASNFTNTNNYFTSVPKNFMELLTNQEAQQWVSGWRLNADSVLWGGHKVFMVKPEEPFQPVKEATQL

Variants of: B1
Experiment: raw area under fraction-flipped curve 0-4 h after induction (AUC4h, not background-subtracted), DNA-recorder readout of cleavage of the substrate (dimensionless); higher = more cleavage of the substrate by the protease variant
Settings: temperature: 34 °C; time window: 0-4 h after rhamnose induction
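Note: Bxb1 expression induced with 0.2% (w/v) L-rhamnose at OD600 near 0.5, cultures sampled hourly, flipped fraction per protease–substrate barcode pair counted by paired-end Illumina sequencing.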

Row | Variant | area with substrate CNLYFQS | area with substrate DNLYFQS | area with substrate FNLYFQS | area with substrate GNLYFQS | area with substrate PNLYFQS | area with substrate QNLYFQS | area with substrate TNLYFQS | area with substrate WNLYFQS | area with substrate HNLYFQS | area with substrate INLYFQS | area with substrate KNLYFQS | area with substrate LNLYFQS | area with substrate RNLYFQS | area with substrate SNLYFQS | area with substrate MNLYFQS | area with substrate NNLYFQS | area with substrate YNLYFQS | area with substrate VNLYFQS
1 | V200P | 0.053 | 0.077 | 0.0614 | 0.0719 | 0.0618 | 0.0559 | 0.0574 | 0.0554 |  |  |  |  |  |  |  |  |  | 
2 | V200T | 0.0377 |  |  | 0.0748 |  |  |  | 0.0602 | 0.0804 | 0.0574 | 0.0775 | 0.0716 | 0.0826 | 0.072 |  |  |  | 
3 | G136T | 0.0633 | 0.0658 | 0.0568 | 0.0622 | 0.0654 |  | 0.0616 | 0.0602 | 0.0541 | 0.0635 | 0.0651 | 0.0634 | 0.0518 | 0.0651 | 0.0608 | 0.0586 | 0.0584 | 
4 | W144K | 0.0871 |  |  |  |  | 0.0598 | 0.0662 | 0.0551 | 0.0753 |  |  |  | 0.0837 | 0.0612 | 0.0577 |  | 0.0583 | 
5 | W144H | 0.0698 | 0.0801 | 0.0561 |  | 0.0301 | 0.0578 | 0.0503 | 0.0639 | 0.0637 |  |  | 0.0669 |  | 0.0609 |  |  |  | 
6 | W144P | 0.0755 |  | 0.0616 | 0.0783 | 0.0737 |  | 0.0736 | 0.0684 |  | 0.0645 | 0.0722 | 0.0631 | 0.0607 | 0.0566 | 0.0572 | 0.0537 | 0.0496 | 0.0594
7 | W144N | 0.0605 | 0.0692 | 0.0625 | 0.0794 | 0.0427 |  | 0.0879 | 0.0636 | 0.0569 | 0.0527 |  |  |  | 0.0666 | 0.07 |  | 0.0654 | 
8 | K216G | 0.0487 |  |  | 0.0616 | 0.0574 | 0.0543 | 0.0533 | 0.0451 | 0.0467 | 0.0563 |  | 0.0522 | 0.0494 | 0.0416 | 0.0451 | 0.0555 | 0.0532 | 0.0504
9 | K216S | 0.0554 |  |  |  | 0.0729 |  |  |  | 0.0737 |  |  | 0.0498 |  |  | 0.0653 |  | 0.0784 | 
10 | K216H | 0.068 | 0.0696 | 0.0548 |  | 0.0592 | 0.0804 | 0.0758 | 0.0503 | 0.0598 |  |  | 0.0702 |  | 0.0639 |  | 0.0583 |  | 0.0758
11 | C152F | 0.0566 | 0.0551 | 0.0391 |  |  |  | 0.065 | 0.0623 | 0.062 | 0.0582 | 0.0668 | 0.0665 |  | 0.0565 | 0.0603 | 0.0613 | 0.0626 | 
12 | P184N | 0.0611 | 0.0449 | 0.0548 |  | 0.0647 |  | 0.0531 | 0.06 | 0.0562 | 0.065 | 0.0715 | 0.0507 |  | 0.0421 | 0.0816 | 0.0538 |  | 0.0649
13 | P184I | 0.0785 | 0.0773 | 0.0597 | 0.061 | 0.0781 | 0.0584 | 0.0575 | 0.0651 | 0.104 | 0.0571 | 0.0694 | 0.0707 |  | 0.0632 | 0.0401 | 0.0541 | 0.053 | 0.0549
14 | P184L | 0.0669 | 0.0633 | 0.055 | 0.0735 | 0.0517 |  |  | 0.0416 | 0.0489 |  |  | 0.0656 | 0.0535 |  | 0.0641 |  | 0.06 | 0.0049
15 | D208Q | 0.0623 |  |  |  | 0.051 |  |  | 0.0422 | 0.063 | 0.0549 | 0.0624 | 0.0588 |  |  |  |  | 0.0466 | 0.0529
16 | D208K | 0.072 |  | 0.0702 |  |  |  |  | 0.0719 | 0.0591 | 0.061 | 0.0568 |  |  |  |  |  |  | 
17 | H168N | 0.049 |  |  | 0.0535 | 0.0542 |  |  | 0.0546 |  |  |  |  | 0.0568 |  |  | 0.0996 |  | 
18 | H168D | 0.0571 | 0.0573 | 0.0573 | 0.0567 | 0.055 | 0.0662 | 0.0341 | 0.0544 | 0.0571 | 0.0783 | 0.0762 | 0.0581 |  | 0.0678 | 0.0499 | 0.0626 | 0.0493 | 0.0379
19 | H168K | 0.0517 |  |  | 0.0542 |  |  | 0.0642 | 0.0572 | 0.0563 |  | 0.0593 |  | 0.0795 |  |  | 0.0573 | 0.0591 | 0.0451
20 | H168Q | 0.053 |  | 0.0607 | 0.0529 | 0.0536 | 0.0508 | 0.0518 | 0.0609 | 0.0534 | 0.0259 | 0.073 | 0.0461 |  | 0.0217 | 0.0587 | 0.0969 | 0.0578 | 0.0518
21 | H168M | 0.0586 | 0.0525 | 0.0649 | 0.0651 | 0.0591 |  | 0.0576 | 0.0633 | 0.0635 | 0.0608 | 0.0704 | 0.0639 | 0.0625 | 0.0662 | 0.0468 | 0.0621 | 0.0598 | 0.0834
22 | T176M | 0.0564 | 0.0696 | 0.051 | 0.0684 |  | 0.0701 | 0.0554 | 0.0474 | 0.0484 |  | 0.0639 | 0.0535 | 0.0626 |  |  |  | 0.0669 | 
23 | T176R | 0.0959 |  |  |  |  | 0.0637 |  |  | 0.0638 |  |  | 0.0669 |  | 0.0533 | 0.0632 | 0.0621 |  | 
24 | T176C | 0.0735 |  |  |  | 0.0615 |  | 0.0629 | 0.0578 | 0.0662 |  | 0.0611 |  | 0.0568 | 0.0553 |  |  | 0.0427 | 
25 | T176S | 0.0618 | 0.0739 | 0.0812 |  | 0.0603 |  |  | 0.053 | 0.066 |  | 0.0686 | 0.059 | 0.0503 | 0.0631 |  | 0.0685 |  | 0.0626
26 | T176N | 0.066 |  |  |  | 0.0605 |  | 0.0629 | 0.0697 | 0.0645 |  |  |  | 0.0484 |  |  | 0.0613 | 0.0658 | 
27 | R160N | 0.0717 | 0.0874 |  |  | 0.0693 |  | 0.0904 | 0.0631 |  |  | 0.0767 | 0.0763 |  | 0.0682 | 0.069 | 0.0708 |  | 
28 | T192G | 0.058 | 0.0743 |  |  | 0.0701 |  | 0.0057 |  |  |  |  | 0.0534 |  | 0.0649 |  |  | 0.065 | 0.0684
29 | T192H | 0.0744 |  | 0.0713 | 0.066 |  |  | 0.0739 | 0.0517 | 0.0609 |  | 0.0706 | 0.0727 |  |  |  |  | 0.045 | 0.0479
30 | T192Q | 0.0614 | 0.0801 | 0.0693 | 0.0634 | 0.0671 |  | 0.0672 | 0.0627 | 0.0654 | 0.0686 | 0.0602 | 0.0573 | 0.0706 | 0.0825 | 0.0635 | 0.0519 | 0.0588 | 0.0793
